Screen size: about 110,000 compounds; about 230 (0.21%) showed an effect of 50% or more. The list shows a part of the results.
molecular target: DPAP1 (Plasmodium falciparum, UniProt Q8IIJ9); experiment: primary screen, percent inhibition; read by cleavage of a fluorogenic dipeptide substrate; higher = more effect of the substance; set-up: species or system P. falciparum D10 trophozoite lysates; single well
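Further: 30 min substrate incubation versus DMSO and 10 µM JCP410 controls.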

Chain of DPAP1 (Q8IIJ9 whole entry, looked up): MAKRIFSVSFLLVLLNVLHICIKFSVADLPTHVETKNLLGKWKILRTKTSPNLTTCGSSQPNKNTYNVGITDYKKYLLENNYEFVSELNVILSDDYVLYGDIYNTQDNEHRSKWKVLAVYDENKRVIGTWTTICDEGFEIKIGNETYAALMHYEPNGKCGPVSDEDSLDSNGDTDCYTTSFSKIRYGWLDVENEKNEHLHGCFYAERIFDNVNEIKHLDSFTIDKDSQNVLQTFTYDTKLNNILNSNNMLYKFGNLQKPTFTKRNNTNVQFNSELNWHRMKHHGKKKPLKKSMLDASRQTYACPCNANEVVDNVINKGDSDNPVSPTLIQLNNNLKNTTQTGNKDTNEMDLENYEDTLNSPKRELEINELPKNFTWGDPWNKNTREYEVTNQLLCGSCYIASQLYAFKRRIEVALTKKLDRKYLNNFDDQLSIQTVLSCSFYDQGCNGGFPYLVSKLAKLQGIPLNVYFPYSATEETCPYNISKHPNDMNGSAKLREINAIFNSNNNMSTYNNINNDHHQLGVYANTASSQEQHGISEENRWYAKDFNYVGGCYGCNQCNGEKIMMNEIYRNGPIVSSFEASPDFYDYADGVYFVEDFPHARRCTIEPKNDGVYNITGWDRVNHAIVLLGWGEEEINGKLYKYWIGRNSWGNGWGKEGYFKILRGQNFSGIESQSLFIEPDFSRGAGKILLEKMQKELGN

Row | SMILES | % Inhibition @ 10 uM [%]
1 | C#CCN1C(=O)S/C(=C\c2ccc(SC)cc2)C1=O | -1.84
2 | Cc1nnc(N2CCCC(C(=O)O)C2)c2nn(-c3ccccc3)c(C)c12 (stereo not drawn) | 4.79
3 | Cc1cc(C(F)(F)F)c2c(C)nn(-c3ccc(C)c(C)c3)c2n1 | 0.221
4 | CCNc1ccc(Cl)cc1[N+](=O)[O-] | 8.23
5 | CCOc1c(Cl)cc(/C=C2/SC(=O)N(C(C)C)C2=O)cc1OC | -2.19
6 | O=C(c1cc(-c2ccc(F)cc2)no1)N1CCN(Cc2ccc3c(c2)OCO3)CC1 | -3.91
7 | COc1ccc(NS(=O)(=O)c2ccc(OC)c(Cl)c2Cl)cc1Cl | -1.24
8 | CCOc1ccc(CNc2nc3nc4c(c(O)n3n2)CCC4)cc1 | -4.19
9 | COc1ccc(C2CC(=O)NC2=O)cc1Br (stereo not drawn) | 1.24
10 | COc1ccc(S(=O)(=O)Nc2cc(OC)ccc2OC)cc1 | 3.72
11 | CC(C)CC(Nc1nc(Oc2ccccc2)nc(Oc2ccccc2)n1)C(=O)O (stereo not drawn) | -4.01
12 | COc1ccc(C2c3c(oc4ccc(C)cc4c3=O)C(=O)N2c2nc(C)c(C(C)=O)s2)cc1OC (stereo not drawn) | -3.13
13 | O=C(NCCCN1CCCC1=O)c1cc2c(Cl)nc3ccccc3c2s1 | 3.6
14 | C=CCn1c(=N)n(CC(O)c2ccc(Cl)c(Cl)c2)c2ccccc21 (stereo not drawn) | 0.147
15 | COc1cc(CN2CCN(S(=O)(=O)c3ccc(Cl)cc3)CC2)cc(OC)c1OC | -3.03
16 | Cc1cc(C)n2nc(SCC(=O)c3cccs3)nc2n1 | 0.627
17 | CCc1ccc(OCC(=O)Nc2ccc(C(C)=O)cc2)c(Br)c1 | -5.29
18 | Cc1ccc(S(=O)(=O)Cc2nc(-c3ccc(C(=O)NCc4ccccn4)cc3)oc2C)cc1 | -2.92
19 | Cc1ccc2c(O)c(C(=O)c3ccccc3)cnc2n1 | 1.15
20 | Fc1ccc(-c2nnn3c2nc(N2CCOCC2)c2ccccc23)cc1 | -2.92
21 | O=C(C1CCCC1)N1CCN(C(=O)C2CCCC2)CC1 | -2.82
22 | CCCN1CCC(N2CCCC(C)C2)CC1 (stereo not drawn) | 3.19

Row | SMILES | % Inhibition @ 10 uM [%]
23 | COc1ccc(C2NC(=O)NC(C)=C2C(=O)Nc2cc(Cl)ccc2C)cc1 (stereo not drawn) | 5.85
24 | COc1ccc(-c2noc(CNC(=O)c3cccs3)n2)cc1 | -2.99
25 | O=C(CC(Cc1ccccc1)C(=O)O)NC1CCCCC1 (stereo not drawn) | 3.17
26 | CCN(CC)c1ccc(-n2cnc3cc(N)ccc32)cc1 | 8.06
27 | CCOc1ccccc1NS(=O)(=O)c1cc(Cl)ccc1Cl | -10.2
28 | O=c1c(Cl)c(Cl)cnn1C12CC3CC(CC(C3)C1)C2 | 36.2
29 | CC1CCCCN1CCCN1C(=O)c2ccccc2C1C(=O)NC1CCCCC1 (stereo not drawn) | 2.05
30 | Cc1nc2cc(CCO)ccc2s1 | -2.66
31 | O=C(Nc1ccc(Cl)c(Cl)c1)c1ccccc1NC(=O)c1ccccc1C(=O)O | 2.48
32 | CC(C)N(CCNC(=O)C1CCN(S(=O)(=O)N2CCOCC2)CC1)Cc1ccccc1 | 3.93
33 | O=C(c1ccc(CSc2nc3ccncc3[nH]2)cc1)N1CCN(C(=O)c2ccco2)CC1 | -1.58
34 | CCCSCCCNC(=O)C1CCCN(S(=O)(=O)N2CCC3(CC2)OCCO3)C1 (stereo not drawn) | 4.4
35 | CCCn1c(CCC(=O)N2CCC3(CC2)OCCO3)nc2cccnc21 | -4.74
36 | Cc1ccc(C(=O)N2CCC(C(=O)O)CC2)cc1 | 0.755
37 | Cc1cc2c(c(=O)o1)C(c1cccc(O)c1)C(C#N)=C(N)O2 (stereo not drawn) | 4.89
38 | COc1ccc(NC(=O)c2ccccc2NC(=O)c2cccs2)cc1 | 0.812
39 | Cc1cc(C)c2c(-n3cccc3)c(C(=O)NCc3ccc4c(c3)OCO4)sc2n1 | -1.08
40 | O=C(Nc1ccc(Br)cc1)C1CC=CCC1C(=O)OCC1CCCO1 (stereo not drawn) | -0.25
41 | COC(=O)c1ccc2[nH]c(S)nc2c1 | 18.9
42 | CCNCC1(c2ccc(OC)c(OC)c2)CCCC1 | 2.78
43 | COc1cccc(NC(=O)c2cccc(C(F)(F)F)c2)c1 | 4.31
44 | CCOC(=O)N1CCC(NC(=O)C2CCN(c3nn4c(=O)cc(C)nc4s3)CC2)CC1 | -0.281

Row | SMILES | % Inhibition @ 10 uM [%]
45 | O=C(c1ccc(Cl)cc1Cl)N1CCN(c2ccc([N+](=O)[O-])cc2)CC1 | -3.65
46 | CCc1ccc(OCC(=O)Nc2ccc(S(=O)(=O)N3CCN(C)CC3)cc2)c(Br)c1 | -1.63
47 | CCCCc1ccc(S(=O)(=O)N2CCN(C(=O)c3ccco3)CC2)cc1 | -5.14
48 | CCNC(=S)N1CCN(CC/N=C/C2=C(O)CC(c3cccs3)CC2=O)CC1 (stereo not drawn) | 2.09
49 | COC(=O)c1sccc1NC(=O)CCC(=O)O | 6.91
50 | Cc1ccc(CNC(=O)c2cc(S(=O)(=O)N3CCCC3)cn2C)cc1 | 1.1
51 | O=C1c2ccncc2C(=O)N1c1ccc(F)cc1 | 2.17
52 | c1ccc(CN2CCN(Cc3cccc4ccccc34)CC2)cc1 | 3.16
53 | CCOc1ccccc1C1NC(C(=O)O)CS1 (stereo not drawn) | 3.66
54 | O=C(CCNC(=O)c1ccc(Br)o1)NCCC1=CCCCC1 | -4.32
55 | CC1(C)[C@H]2CC=C(CN3CCN(c4cccc(Cl)c4)CC3)[C@@H]1C2 | -2.02
56 | O=C(O)CNC(=S)N(Cc1ccco1)Cc1ccccc1Cl | 4.42
57 | Cc1cc(C)nc(Nc2ccccc2C(=O)O)n1 | 5.03
58 | Cc1ccc(S(=O)(=O)NCC(=O)NC(C)(C)C)cc1 | 7.42
59 | CCCC/C(=N\CCc1c(C)[nH]c2ccc(OC)cc12)C1=C(O)CCCC1=O | -0.703
60 | CC(=O)Nc1cccc(NC(=O)C(c2ccccc2)c2ccccc2)c1 | -2
61 | CCOC(=O)c1c(C)oc2ncnc(NCCc3ccc(OC)cc3OC)c12 | -6.36
62 | Cc1nc(/C=C\C(=O)O)c2cc(C)oc2n1 | 4.74
63 | Cc1ccn(C(=O)COc2ccc(Br)cc2)n1 | -4.77
64 | O=C(O)CC(c1ccccc1)c1cc(Br)ccc1O (stereo not drawn) | -3.63
65 | CCOC(=O)C1=C(Cn2ccnc2)NC(=O)NC1c1cccs1 (stereo not drawn) | 6.76
66 | CCOc1ccc(CCNC(=O)c2c(-n3cccc3)sc(C)c2C)cc1OCC | 10.4

From publication PMC6919601, “Identification of Plasmodium dipeptidyl aminopeptidase allosteric inhibitors by high throughput screening” (PLoS ONE, 2019)
